Assay results published in paper PMC4336329 (PLoS ONE, 2015).
Screen size: about 310,000 compounds; about 2,200 (0.71%) showed an effect of 50% or more. The effect is printed as a negative number. Some of the results follow.

Biological target: human ether-à-go-go-related gene (hERG) potassium channel (human, UniProt Q12809)
Assay: primary screen, population patch clamp on CHO cells stably expressing hERG

Chain of human ether-à-go-go-related gene (hERG) potassium channel (Q12809 whole entry, looked up): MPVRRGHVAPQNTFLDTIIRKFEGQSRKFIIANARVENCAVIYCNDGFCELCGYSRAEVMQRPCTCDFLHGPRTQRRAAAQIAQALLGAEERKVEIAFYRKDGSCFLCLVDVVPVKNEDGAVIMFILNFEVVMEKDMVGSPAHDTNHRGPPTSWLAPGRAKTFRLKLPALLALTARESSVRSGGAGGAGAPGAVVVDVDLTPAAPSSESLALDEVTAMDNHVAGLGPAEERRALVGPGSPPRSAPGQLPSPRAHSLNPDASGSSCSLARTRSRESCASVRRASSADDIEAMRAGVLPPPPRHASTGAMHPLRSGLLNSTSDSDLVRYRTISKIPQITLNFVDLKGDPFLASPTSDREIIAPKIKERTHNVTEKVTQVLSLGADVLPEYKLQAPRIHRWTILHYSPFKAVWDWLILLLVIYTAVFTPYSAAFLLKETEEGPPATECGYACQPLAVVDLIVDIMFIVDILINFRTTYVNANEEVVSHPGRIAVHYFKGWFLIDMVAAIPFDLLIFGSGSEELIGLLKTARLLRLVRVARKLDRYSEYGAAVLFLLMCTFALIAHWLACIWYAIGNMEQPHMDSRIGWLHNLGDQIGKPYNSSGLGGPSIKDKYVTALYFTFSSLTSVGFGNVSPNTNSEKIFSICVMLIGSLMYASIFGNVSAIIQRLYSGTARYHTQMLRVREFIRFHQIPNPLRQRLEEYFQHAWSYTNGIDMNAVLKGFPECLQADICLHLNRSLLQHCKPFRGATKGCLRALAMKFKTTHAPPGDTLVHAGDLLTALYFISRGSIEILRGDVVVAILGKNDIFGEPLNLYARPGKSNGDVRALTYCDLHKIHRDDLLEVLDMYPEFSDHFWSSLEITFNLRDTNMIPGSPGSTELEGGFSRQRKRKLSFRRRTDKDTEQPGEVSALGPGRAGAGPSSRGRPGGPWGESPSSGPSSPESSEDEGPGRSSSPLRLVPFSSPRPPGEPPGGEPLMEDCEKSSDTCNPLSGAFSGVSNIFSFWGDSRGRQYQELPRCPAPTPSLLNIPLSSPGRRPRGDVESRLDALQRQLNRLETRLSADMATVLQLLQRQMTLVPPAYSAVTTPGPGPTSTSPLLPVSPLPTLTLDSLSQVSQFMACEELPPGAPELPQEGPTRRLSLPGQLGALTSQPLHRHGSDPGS

Row | Compound | hERG current change (%, negative = inhibition) at 1uM
1 | COc1cc(OC)c(OC)cc1CN1CCCC(C(=O)N2CCCC2)C1.O=C(O)C(=O)O (stereo not drawn) | 18.2%
2 | CCn1c(CNC(=O)c2ccco2)nnc1SCCOc1ccccc1 | 11.1%
3 | O=C(Nc1cccc(C(F)(F)F)c1)OC1CN2CCC1CC2 (stereo not drawn) | 8.86%
4 | COc1ccc(CCNC(=O)C2CCN(S(=O)(=O)N3CCC(C)CC3)CC2)cc1OC | 15.7%
5 | COc1ccc(/C=C(\C#N)C(=O)N2COCC2(C)C)cc1 | 7.39%
6 | O=C(NC1CCCC1)c1ccc(Br)o1 | 2.22%
7 | CN(C)S(=O)(=O)c1cccc(-c2cn3cccnc3n2)c1 | 13.5%
8 | COc1ccc(C(=O)Cn2c3ccccc3n3nc(CCC(=O)O)c(=O)nc23)cc1OC | 12.5%
9 | COc1ccc(CNCc2ccc3ccccc3c2)c(OC)c1.O=C(O)C(=O)O | -14.1%
10 | Cc1c(C(c2cc3c(cc2Br)OCO3)c2c(C)n(C)n(-c3ccccc3)c2=O)c(=O)n(-c2ccccc2)n1C | 1.6%
11 | CCOc1ccc(NS(=O)(=O)c2ccc(NC(=S)NC(C)=O)cc2)cc1 | 10.8%
12 | COc1ccc(N(C(C)C(=O)N(C)Cc2ccccc2)S(C)(=O)=O)cc1 (stereo not drawn) | 14.5%
13 | COc1ccc(CCNC(=O)CS(=O)(=O)Cc2nc(-c3ccc(C)cc3)oc2C)cc1OC | 5.06%
14 | CC(O)c1ccc(Oc2cnccn2)cc1 (stereo not drawn) | 18.4%
15 | COC(=O)C1=C(c2ccc(OC)c(OC)c2)C[C@@H]2CC[C@H]1N2C(=O)NC1CC1 | 3.73%
16 | CCOC(=O)c1cc(-c2cc(OC)c(OC)c(OC)c2)nc2c1c(=O)[nH]c(=O)n2Cc1ccccc1 | 10.8%
17 | COc1ccc(NC(=O)c2cc3ccccc3[nH]2)cc1 | 10.1%
18 | CCC1CCCCN1C(=O)c1cc(COc2ccc3ncccc3c2)on1 (stereo not drawn) | 15%
19 | COc1ccc(C2CC(c3ccccc3)=NN2C(=O)COC(=O)c2cnc(Cl)c(Cl)c2)cc1 (stereo not drawn) | 8.17%
20 | COc1ccc(C(C)=O)c(Oc2ccc(S(=O)(=O)N3CCOCC3)cn2)c1 | -1.82%
21 | Cc1cccc(NC(=O)c2cccc(NC3=NC4CS(=O)(=O)CC4S3)c2)c1 (stereo not drawn) | 9.52%
22 | O=C(Cc1ccccn1)c1ccc(O)cc1O | 12.6%

Row | Compound | hERG current change (%, negative = inhibition) at 1uM
23 | COc1ccccc1CNC(=O)C(=O)Nc1nccs1 | 14.2%
24 | COc1ccc(CNc2cc([N+](=O)[O-])ccc2OC)cc1 | 2.46%
25 | C=C(c1ccc(OCCO)cc1)c1ccc(OCCO)cc1 | 16.6%
26 | Cn1cnnc1SCC(=O)NN1C(=O)NC(C)(c2ccccc2)C1=O (stereo not drawn) | 5.33%
27 | COc1cc(/C=C/C2=NC(=O)C(C)(C)O2)ccc1O | 12.2%
28 | C=CCNc1nnc(SCC(=O)Nc2ccccc2OC)c2ccccc12 | 13.3%
29 | O=C(CSc1ccc2nnc(-c3cccc(F)c3)n2n1)NCC1CCCO1 (stereo not drawn) | -10.5%
30 | Cc1ccc(S(C)(=O)=NC(=O)NC(=O)c2c(F)cccc2Cl)cc1 (stereo not drawn) | 9.61%
31 | COc1ccc2sc(-c3ccccc3OC)c(C#CCCO)c2c1 | 12.2%
32 | CCCNC(=O)C(Cc1ccc(C(F)(F)F)cc1)NC(=O)c1ccc(C#N)cc1 (stereo not drawn) | -5%
33 | NC(=O)[C@@H]1CCCN1C(=O)c1ccc2nc(Cc3ccccc3F)oc2c1 | 16.7%
34 | O=C1C=C(c2ccc(F)nc2)CCC1 | 10.2%
35 | Cc1csc(SC(C)C(=O)Nc2ccc(Cl)cn2)n1 (stereo not drawn) | 3.3%
36 | CCc1cccc(C)c1NC(=S)NCCc1c(C)[nH]c2ccc(C)cc12 | 11.3%
37 | O=C(Nc1ccc(S(=O)(=O)Nc2ncccn2)cc1)c1ccc(F)c(S(=O)(=O)N2CCOCC2)c1 | 6.95%
38 | O=C(c1cccs1)N1CCN=C1SCc1ccc(F)cc1 | 9.02%
39 | CCOc1ccc(-c2cc(C(=O)OC)nc3c2c(=O)n(C)c(=O)n3C)cc1 | 5.32%
40 | CCCCN(CC)C(=O)CN1C(=O)c2ccccc2C1=O | 5.7%
41 | CC(C)(C)OC(=O)N1CCC(NC(=O)c2nc[nH]c2C(=O)NC2CCN(C(=O)OC(C)(C)C)CC2)CC1 | 12%
42 | O=C(CN1N=C(c2ccccc2)CCC1=O)NCCN1CCc2ccccc2C1 | 2.66%
43 | CC(C)=CCc1c2c(c(O)c3c(=O)c4c(oc13)-c1cc(O)c(O)cc1OC4C=C(C)C)C=CC(C)(C)O2 (stereo not drawn) | 12.6%
44 | CCOc1ccc(C2N(c3ccc(OC)cc3)C(=O)C3CCCN32)cc1OC (stereo not drawn) | 9.87%

Row | Compound | hERG current change (%, negative = inhibition) at 1uM
45 | O=[N+]([O-])c1cccc(N=NN(CCO)c2cccc([N+](=O)[O-])c2)c1 | 11.7%
46 | CC(C)(C)C(=O)Nc1ccc(C(=O)N/N=C/c2ccccc2OC(=O)c2ccc(Cl)cc2)cc1 | 9.38%
47 | Cc1cccn2c(=O)c3cc(C(=O)NCCc4ccccc4)c(=N)n(CCCn4ccnc4)c3nc12 | -61.3%
48 | CN(C)CCCNc1ncnc2oc(-c3ccccc3)c(-c3ccccc3)c12 | -16.7%
49 | Cc1nn2c(c1-c1ccc(Cl)cc1)N=C(c1ccco1)CC2c1ccccc1 (stereo not drawn) | 16.8%
50 | Cc1ccc(OCC(=O)NC(C)c2ccccc2)cc1C (stereo not drawn) | 8.12%
51 | CCC1CCCCN1C(=O)C(=O)c1cn(CC(=O)N(CC)CC)c2ccccc12 (stereo not drawn) | 8.26%
52 | CS(=O)(=O)N1CCN(c2ccc(NC(=O)Cc3ccccc3)cc2)CC1 | 8.67%
53 | [Cl-].c1ccc(CC[C@@H]2CC[C@@H](CCc3ccccc3)N2)cc1 | -32.6%
54 | CN1CCN(C2CC(=O)N(CCc3ccccc3)C2=O)CC1 (stereo not drawn) | -0.229%
55 | C=CCOc1ccccc1CN1CCCCCC1 | 11.6%
56 | Cc1nnc(NC(=O)CCC(=O)NCc2cccs2)s1 | 12.5%
57 | COc1ccc(C(=O)/C=C/c2ccc(OC)c(CN3CCOCC3)c2)cc1 | -2.3%
58 | COc1ccccc1-c1cn[nH]c1-c1ccc(OCc2ccccc2)cc1O | 7.06%
59 | COc1ccc(N2CC(C(=O)Nc3nc(-c4ccccc4)c(C(C)=O)s3)CC2=O)c(OC)c1 (stereo not drawn) | 8.95%
60 | COc1cc2c(cc1OC)C(COc1ccc(C(C)C)cc1)NCC2 (stereo not drawn) | 10.6%
61 | O=C(NOC(=O)c1c(F)cccc1Cl)c1ccc(Cl)c(Cl)c1 | 15.6%
62 | c1ccc(CCNc2nc3ccccc3s2)cc1 | 2.81%
63 | COCCN(C(=O)CSc1nnc(-c2ccccc2F)n1N)c1c(N)n(Cc2ccccc2)c(=O)[nH]c1=O | 7.86%
64 | COc1cc(/C=C2\SC(N)=NC2=O)ccc1OCC(=O)Nc1ccc(C)cc1 | 2.92%
65 | COc1cccc(C2C(C(C)=O)=C(O)C(=O)N2Cc2ccco2)c1 (stereo not drawn) | 22.3%
66 | OCCc1ccc(O)cc1 | 11.2%

Row | Compound | hERG current change (%, negative = inhibition) at 1uM
67 | Cc1nnc(NC(=O)c2ccc3ccccc3c2)s1 | 15.7%
68 | COc1ccc(S(=O)(=O)N(CC(=O)NN=C2CCN(C)CC2)c2cc(Cl)ccc2OC)cc1OC | 11.7%
69 | O=C(OCc1cnc(Cl)s1)c1cccs1 | 16.8%
70 | COc1ccc(Cl)cc1N(C(=O)Nc1cccc(Cl)c1)C1=NCC(C)S1 (stereo not drawn) | 11.1%
71 | COCCOc1cc(NC(=O)c2ccccc2)c(Cl)cc1Cl | 4.74%
72 | CCN(CCCNC(=O)CCNC(=O)Cn1cnc2ccccc2c1=O)c1ccccc1 | 10.1%
73 | Cc1ccc(N(C(=O)c2snc(C(N)=O)c2N)C(CC(C)C)C(=O)NC2CCCC2)cc1 (stereo not drawn) | -2.22%
74 | O=C(Cc1ccccc1F)Nc1cc(Cl)ccc1N1CCCC1 | 11%
75 | COc1ccc(CCC(=O)NCCNC(=O)CCc2ccc(OC)cc2)cc1 | 14.9%
76 | CCOc1ccc(C(Nc2ccc(C)cc2)P2(=O)OCC(C)(C)CO2)cc1 (stereo not drawn) | 13.7%
77 | COC(CNC(=O)C1CC(=O)N(CCc2ccc(C)cc2)C1)OC (stereo not drawn) | 12.8%
78 | O=[N+]([O-])C(/C=C(/Cl)[N+](=O)[O-])=C(N1CCCCC1)N1CCCCC1 | 12.6%
79 | O=S(=O)(c1ccc(NCCOc2ccccc2)nc1)N1CCCC1 | 11%
80 | O=C(/C=C/c1cccc([N+](=O)[O-])c1)NCCN1CCOCC1 | 14.4%
81 | N#Cc1c(NC(=O)c2ccc(-c3ccccc3[N+](=O)[O-])o2)sc2c1CCCC2 | 7.33%
82 | O=C(NCCC(c1ccccc1)c1ccccc1)c1cccs1 | 19.4%
83 | OC[C@H]1O[C@@H](Oc2cc(O)cc(/C=C/c3ccc(O)cc3)c2)[C@H](O)[C@@H](O)[C@@H]1O | 11.6%
84 | COc1ccc(C2C(O)C(c3c[nH]c4ccccc34)=NN2C(=O)CCl)cc1 (stereo not drawn) | 8.64%
85 | O=C1c2oc3ccccc3c(=O)c2C(c2cccc(F)c2)N1CCCO (stereo not drawn) | 2.61%
86 | NS(=O)(=O)c1ccc(C(=O)Nc2ccc(-c3nc4cccnc4s3)cc2)cc1 | 7.63%
87 | CC(=O)Nc1ccc(S(=O)(=O)Nc2nc3n(n2)C(c2ccccc2)CC(=O)N3)cc1 (stereo not drawn) | 10.1%
